In PMC4336329 (PLoS ONE, 2015):
About 14,000 (4.5%) of roughly 310,000 compounds showed an effect of 50% or more. The effect is printed as a negative number. The list shows a part of the results.

Each compound was assayed against human ether-à-go-go-related gene (hERG) potassium channel (human, UniProt Q12809) (assay: primary screen, population patch clamp on CHO cells stably expressing hERG).
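Note: peak tail current of the secondary pulse compared with the same well before compound.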

Chain of human ether-à-go-go-related gene (hERG) potassium channel (Q12809 whole entry, looked up): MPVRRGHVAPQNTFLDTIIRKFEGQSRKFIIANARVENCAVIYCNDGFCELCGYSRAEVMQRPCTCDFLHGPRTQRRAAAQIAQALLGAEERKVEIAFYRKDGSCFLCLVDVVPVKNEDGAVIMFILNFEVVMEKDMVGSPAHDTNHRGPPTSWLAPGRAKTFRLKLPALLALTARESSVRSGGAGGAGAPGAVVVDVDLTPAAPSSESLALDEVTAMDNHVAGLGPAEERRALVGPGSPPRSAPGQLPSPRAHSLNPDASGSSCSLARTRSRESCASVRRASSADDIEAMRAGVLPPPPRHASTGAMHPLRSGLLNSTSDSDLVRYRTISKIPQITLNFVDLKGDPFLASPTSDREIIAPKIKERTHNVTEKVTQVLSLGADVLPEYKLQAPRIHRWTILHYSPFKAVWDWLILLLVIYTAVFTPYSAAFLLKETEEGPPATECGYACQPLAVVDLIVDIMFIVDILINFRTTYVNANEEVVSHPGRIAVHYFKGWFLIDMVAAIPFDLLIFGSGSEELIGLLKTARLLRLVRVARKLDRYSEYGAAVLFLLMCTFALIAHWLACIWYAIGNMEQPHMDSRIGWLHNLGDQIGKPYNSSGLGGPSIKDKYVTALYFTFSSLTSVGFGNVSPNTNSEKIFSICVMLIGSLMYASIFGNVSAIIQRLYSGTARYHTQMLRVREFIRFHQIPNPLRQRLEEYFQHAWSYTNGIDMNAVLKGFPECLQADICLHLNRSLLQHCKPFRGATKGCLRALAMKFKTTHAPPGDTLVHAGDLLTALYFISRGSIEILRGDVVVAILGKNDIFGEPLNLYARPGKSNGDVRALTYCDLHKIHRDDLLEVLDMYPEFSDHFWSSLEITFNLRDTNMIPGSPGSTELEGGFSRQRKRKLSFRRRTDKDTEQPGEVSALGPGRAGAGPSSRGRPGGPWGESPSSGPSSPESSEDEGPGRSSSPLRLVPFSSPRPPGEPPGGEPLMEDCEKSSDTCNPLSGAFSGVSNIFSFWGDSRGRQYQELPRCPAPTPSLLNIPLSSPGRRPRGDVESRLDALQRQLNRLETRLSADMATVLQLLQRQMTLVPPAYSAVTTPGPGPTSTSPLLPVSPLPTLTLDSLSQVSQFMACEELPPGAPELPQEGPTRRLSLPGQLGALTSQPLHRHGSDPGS

Row | SMILES | hERG current change (%, negative = inhibition) at 10uM [%]
1 | CCC(=O)N(CCc1ccccc1)Cc1cc2ccc(OC)cc2[nH]c1=O | -31.3
2 | Br.COc1ccc(C(=O)CN2CCCCC2)cc1 | 7.07
3 | CN(c1ccccc1)S(=O)(=O)c1ccc(C(=O)NCc2ccccc2F)cc1 | -4.24
4 | O=C(Nc1ccc(Cl)cc1)c1cccnc1N1CCCCC1 | -13.3
5 | CCCN(CC1CC1)C(=O)CCc1nnc(CCc2c[nH]c3ccccc23)o1 | -6.77
6 | COc1ccc(C(=O)Nc2ccccc2N2CCOCC2)cc1[N+](=O)[O-] | -10.5
7 | COc1cc(OC)cc(-c2c(-c3cccs3)c3cc(Br)ccc3n2C)c1 | 18.6
8 | CCOc1ccc(NC(=O)NC2CCS(=O)(=O)C2)cc1 (stereo not drawn) | -29.4
9 | Cc1ccc(S(=O)(=O)N2CCCCC2c2cccnc2)c(C)c1C (stereo not drawn) | -30.1
10 | O=C(NC1CCN(C(=O)Nc2cccc(Cl)c2)CC1)c1ccccc1 | 1.02
11 | CCc1ccc(-c2csc(NC(=O)C3CC(=O)N(c4ccc5c(c4)OCCO5)C3)n2)cc1 (stereo not drawn) | 11.4
12 | Cc1nc(C)c(-c2csc(Nc3ccc(S(N)(=O)=O)cc3)n2)s1 | 19.9
13 | CC(C(=O)OCC(=O)c1ccc(Br)cc1)N1C(=O)C2C3C=CC(C3)C2C1=O (stereo not drawn) | 1.25
14 | CC1CCN(C2=NC(=O)/C(=C/c3cn[nH]c3-c3ccccc3)S2)CC1 | -7.85
15 | CCCCCC(=O)Nc1nnn(CCC)n1 | 4.41
16 | CC(=O)c1cccc(NC(=O)CN2CCc3cc4c(cc3C2)OCCCO4)c1 | -18.8
17 | Cc1[nH]c2ccccc2c1/C=N/NC(=O)c1cccc(S(=O)(=O)Nc2ccccc2Cl)c1 | 18.6
18 | Cc1ccc(C)c2c1sc(=NC(=O)CN1C(=O)CCC1=O)n2C | -13.6
19 | CC(C)(C)c1ccc(C(=O)NC(=S)NNC(=O)c2cccs2)cc1 | 33
20 | COc1ccc(-c2cc(-c3ccccc3)nc(N3CCCC3)n2)cc1OC | -7.76
21 | C=CCNC(=O)C(=O)NCCOc1ccccc1Cl | 5.25
22 | COc1ccc(/C=C(\NC(=O)c2ccccc2)C(=O)N2CCN(C)CC2)cc1OC | 20
23 | COC(=O)c1cc(=O)n(-c2ccc(F)cc2)c(=Nc2ccc(F)cc2)s1 | 8.23

Row | SMILES | hERG current change (%, negative = inhibition) at 10uM [%]
24 | O=C(CN1CCOCC1)Nc1ccc(Oc2ccccc2)cc1 | -9.26
25 | COc1cc(C2CC(=O)N3CN(Cc4ccco4)CSC3=C2C#N)ccc1OCc1ccccc1 (stereo not drawn) | 15.1
26 | COc1cccc(N/C(N)=N/c2nc(C(F)(F)F)cc(=O)[nH]2)c1 | 0.0128
27 | O=C(Nc1cccc(Cl)c1)Nc1cccc(Cl)c1 | 13.2
28 | CCc1ccc(OCC(=O)NC(C)(C)C)cc1 | 21.9
29 | COCCn1c(=O)[nH]c(=O)c2c(C(F)(F)F)cc(-c3cccs3)nc21 | 8.95
30 | Cc1oc(C)c(C(=O)NCCCC(=O)O)c1C(=O)NCCCC(=O)O | 28.3
31 | Cc1ccc2nc(-c3ccc(NC(=S)NC4CC(C)(C)NC(C)(C)C4)cc3)sc2c1 | 4.59
32 | O=C(C1CCCCCC1)N1CC[C@@H](N2CCC(O)CC2)[C@H](O)C1 | 12.6
33 | O=c1nc(-c2ccccc2)c2ccccc2[nH]1 | -1.29
34 | Cc1ccc(N(CC(O)CN2C(=O)NC(C)(C)C2=O)S(=O)(=O)c2ccc(C)cc2)cc1 (stereo not drawn) | -20.3
35 | CCNc1nc(N)nc(-c2cc(Cl)ccc2O)n1 | 15.7
36 | CCCCOc1ccc(/C(O)=C2/C(=O)C(=O)N(Cc3cccnc3)C2c2ccncc2)c(C)c1 (stereo not drawn) | -1.61
37 | Nc1nc(N)nc(-c2cc([N+](=O)[O-])ccc2O)n1 | -1.71
38 | Cc1cccc(NC(=O)COc2coc(CN3CCN(c4ccccc4)CC3)cc2=O)c1 | -7.9
39 | Cc1ccc(-n2c(SCC(=O)Nc3cccc(C)c3)nc3c(oc4ccccc43)c2=O)cc1 | 18.7
40 | Cc1ccc(NC(=S)Nc2cccc3cnccc23)c(C)c1 | 45.2
41 | O=C(COC(=O)CCc1ccccc1)Nc1ncc(Cl)cc1Cl | -7.23
42 | CCCOC(=O)/C(C)=N\NC(=O)c1ccco1 | 14.8
43 | O=C(Cc1ccccc1)N1CCCC(c2nc(-c3ccc(S(=O)(=O)N4CCCC4)cc3)no2)C1 (stereo not drawn) | -9.11
44 | CCOC(=O)c1ccc(Nc2ncnc3ccc(C)cc23)cc1 | 6.65
45 | O=c1oc2ccccc2c2c1nnn2CCO | 8.06
